Measurements reported in the supplement of paper PMC4604168 (melanoma cell lines).
The list shows a part of the results. Many values rest on one well or one pass, so single values are uncertain.

Key:
Assay in all cases: cell count relative to DMSO control; melanoma cells; higher = more viable cells
Settings in all cases: library dose: standard library concentration; 72 h
G361 = tested on: G361
IPC-298 = tested on: IPC-298
IST-MEL1 = tested on: IST-MEL1
LB2518-MEL = tested on: LB2518-MEL
LOXIMVI = tested on: LOXIMVI
MEL-HO = tested on: MEL-HO
MZ2-MEL = tested on: MZ2-MEL
MeWo = tested on: MeWo
RPMI7951 = tested on: RPMI7951
RVH-421 = tested on: RVH-421
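Also: cells treated in 1,536-well plates, then fixed and DAPI-stained, with nuclei counted from automated high-throughput microscope images.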

Structure (SMILES)	cell count (G361) [%]	cell count (IPC-298) [%]	cell count (IST-MEL1) [%]	cell count (LB2518-MEL) [%]	cell count (LOXIMVI) [%]	cell count (MEL-HO) [%]	cell count (MZ2-MEL) [%]	cell count (MeWo) [%]	cell count (RPMI7951) [%]	cell count (RVH-421) [%]
CN(c1ncccc1CNc1nc(Nc2ccc3c(c2)CC(=O)N3)ncc1C(F)(F)F)S(C)(=O)=O + C=CCn1c(=O)c2cnc(Nc3ccc(N4CCN(C)CC4)cc3)nc2n1-c1cccc(C(C)(C)O)n1 [MK1775] (first compound 0.4 µM, partner dose 0.1 µM)	89.7	101	88.1	71.5	76.2	98.1	91.5	101	55.9	70.3
CN(c1ncccc1CNc1nc(Nc2ccc3c(c2)CC(=O)N3)ncc1C(F)(F)F)S(C)(=O)=O + CS(=O)(=O)CCNCc1ccc(-c2ccc3ncnc(Nc4ccc(OCc5cccc(F)c5)c(Cl)c4)c3c2)o1 [lapatinib] (first compound 0.4 µM, partner dose 4 µM)	48.2	89.3	79.3	93.7	120	73.9	49.5	70.3	57.5	86.3
CS(=O)(=O)c1ccc(C(=O)Nc2ccc(Cl)c(-c3ccccn3)c2)c(Cl)c1 [vismodegib] + CCCCCCCCc1ccc(CCC(N)(CO)CO)cc1 [fingolimod] (first compound 5 µM, partner dose 10 µM)	0.673	5.02	4.17	0.223	16	1.01	0.711	6.26	1.38	4.83
C=C(c1ccc(C(=O)O)cc1)c1cc2c(cc1C)C(C)(C)CCC2(C)C [Bexarotene] + CC(C)CCN1c2nc(Nc3cc(F)c(O)c(F)c3)ncc2N(C)C(=O)C1C [BID1870] (first compound 10 µM, partner dose 1 µM)	63.8	68.5	75.9	89.9	78.5	64.1	87.4	71.1	56.1	72.1
CCCS(=O)(=O)Nc1ccc(F)c(C(=O)c2c[nH]c3ncc(Cl)cc23)c1F + C[C@@H]1CCN(C(=O)CC#N)C[C@@H]1N(C)c1ncnc2[nH]ccc12 [CP690550] (first compound 0.4 µM, partner dose 5 µM)	60.4	83.1	46.1	103	93	75.5	85.7	86.3	80.3	89
CN(c1ncccc1CNc1nc(Nc2ccc3c(c2)CC(=O)N3)ncc1C(F)(F)F)S(C)(=O)=O + Cc1cc([N+](=O)[O-])ccc1NS(=O)(=O)c1cc(Cl)ccc1Cl [FH535] (first compound 0.4 µM, partner dose 5 µM)	50.8	52.8	49.9	67.1	63.2	42.9	59.1	75.2	67.6	55.3
CCCS(=O)(=O)Nc1ccc(F)c(C(=O)c2c[nH]c3ncc(Cl)cc23)c1F + O=c1cc(-c2cccc3c2Sc2ccccc2S3)oc(N2CCOCC2)c1 [KU55933] (first compound 0.4 µM, partner dose 5 µM)	63	91.6	80.5	75.9	98.9	83.8	103	84	88.1	75.3
NC1(c2ccc(-c3nc4ccn5c(=O)[nH]nc5c4cc3-c3ccccc3)cc2)CCC1 + O=C(O)c1ccc2c(c1)nc(Nc1cccc(Cl)c1)c1ccncc12 [CX4945] (first compound 2 µM, partner dose 2 µM)	53.9	67.3	68.9	99.3	50.8	44.3	66.5	75.2	57.1	61.4
NC1(c2ccc(-c3nc4ccn5c(=O)[nH]nc5c4cc3-c3ccccc3)cc2)CCC1 + COCC[n+]1c2c(n(Cc3cnccn3)c1C)C(=O)c1ccccc1C2=O [YM155] (first compound 2 µM, partner dose 0.002 µM)	58.6	31	40	10.8	47.7	68.4	25.9	19.6	64.3	81.2
CCCS(=O)(=O)Nc1ccc(F)c(C(=O)c2c[nH]c3ncc(Cl)cc23)c1F + COc1cc2ncnc(Nc3ccc(Oc4ccccc4)cc3)c2cc1OC [SrcI1] (first compound 0.4 µM, partner dose 10 µM)	40.5	68	82	98.1	101	88.6	64.7	77.7	48.4	89.2
NC1(c2ccc(-c3nc4ccn5c(=O)[nH]nc5c4cc3-c3ccccc3)cc2)CCC1 + Cn1c(=O)n(-c2ccc(C(C)(C)C#N)cc2)c2c3cc(-c4cnc5ccccc5c4)ccc3ncc21 [NVP-BEZ235] (first compound 2 µM, partner dose 0.02 µM)	35.9	55.3	59.3	60.4	61.5	48.6	65.3	41	61	55.2
C=C(c1ccc(C(=O)O)cc1)c1cc2c(cc1C)C(C)(C)CCC2(C)C [Bexarotene] + O=C(CCCCCCC(=O)Nc1ccccc1)NO [vorinostat] (first compound 10 µM, partner dose 0.4 µM)	51.8	74.6	74.6	68.3	82.8	76.6	80.2	84.4	41.4	74.4
CN(c1ncccc1CNc1nc(Nc2ccc3c(c2)CC(=O)N3)ncc1C(F)(F)F)S(C)(=O)=O + COC(=O)c1sccc1S(=O)(=O)Nc1ccc(Nc2ccccc2)cc1OC [GSK0660] (first compound 0.4 µM, partner dose 5 µM)	75.4	92.5	79.9	80.2	109	81	58	73.5	65.8	52
CN(c1ncccc1CNc1nc(Nc2ccc3c(c2)CC(=O)N3)ncc1C(F)(F)F)S(C)(=O)=O + COc1cc(N2CCC(N3CCN(C)CC3)CC2)ccc1Nc1ncc(Cl)c(Nc2ccccc2S(=O)(=O)C(C)C)n1 [NVP-TAE684] (first compound 0.4 µM, partner dose 0.4 µM)	72.4	92.1	106	97.7	58.6	93.5	88.7	71.2	68.9	98.5
CCCS(=O)(=O)Nc1ccc(F)c(C(=O)c2c[nH]c3ncc(Cl)cc23)c1F + Oc1nc(-c2ccc(C(F)(F)F)cc2)nc2c1CSCC2 [XAV939] (first compound 0.4 µM, partner dose 10 µM)	71.7	88.3	94	93.2	85.7	73.3	84.3	87.3	76.3	84.9
NC1(c2ccc(-c3nc4ccn5c(=O)[nH]nc5c4cc3-c3ccccc3)cc2)CCC1 + c1cc(-c2cnn3cc(-c4ccc(OCCN5CCCCC5)cc4)cnc23)ccn1 [Dorsomorphin] (first compound 2 µM, partner dose 2 µM)	47.3	75.6	87.9	62.2	107	69.9	69.9	62.3	58.1	80.8
NC1(c2ccc(-c3nc4ccn5c(=O)[nH]nc5c4cc3-c3ccccc3)cc2)CCC1 + COc1cc2ncnc(Nc3ccc(Oc4ccccc4)cc3)c2cc1OC [SrcI1] (first compound 2 µM, partner dose 10 µM)	14.9	69.3	42.2	73.2	78.1	55	49.5	52	6.34	64
NC1(c2ccc(-c3nc4ccn5c(=O)[nH]nc5c4cc3-c3ccccc3)cc2)CCC1 + CCN(CC)CCCCNc1ncc2cc(-c3cc(OC)cc(OC)c3)c(NC(=O)NC(C)(C)C)nc2n1 [PD173074] (first compound 2 µM, partner dose 0.5 µM)	92.8	93.4	97.7	103	79.7	84.9	95.9	87.9	95	97.9
NC1(c2ccc(-c3nc4ccn5c(=O)[nH]nc5c4cc3-c3ccccc3)cc2)CCC1 + COC(=O)c1sccc1S(=O)(=O)Nc1ccc(Nc2ccccc2)cc1OC [GSK0660] (first compound 2 µM, partner dose 5 µM)	71.7	89.4	87.9	85.2	89.9	70	84.5	70.8	71.3	90.9
CS(=O)(=O)c1ccc(C(=O)Nc2ccc(Cl)c(-c3ccccn3)c2)c(Cl)c1 [vismodegib] + COc1cc2c(Oc3ccc4[nH]c(C)cc4c3F)ncnc2cc1OCCCN1CCCC1 [cediranib] (first compound 5 µM, partner dose 2 µM)	99.8	110	119	120	61.9	96.8	116	79.7	112	116
CS(=O)(=O)c1ccc(C(=O)Nc2ccc(Cl)c(-c3ccccn3)c2)c(Cl)c1 [vismodegib] + O=c1cc(-c2cccc3c2Sc2ccccc2S3)oc(N2CCOCC2)c1 [KU55933] (first compound 5 µM, partner dose 5 µM)	77.9	90.7	94.9	98.4	103	82.9	101	102	107	108
CN(c1ncccc1CNc1nc(Nc2ccc3c(c2)CC(=O)N3)ncc1C(F)(F)F)S(C)(=O)=O + Cn1nnc2c(C(N)=O)ncn2c1=O [temozolomide] (first compound 0.4 µM, partner dose 10 µM)	81.3	91.4	71.6	80.1	78.7	91.9	77	91.2	58	82.5
